# Experimental data published in PubChem BioAssay AID485313 (National Center for Advancing Translational Sciences (NCATS), 2010).
# Screen size: about 320,000 compounds; about 7,600 (2.4%) were called active. Inconclusive results, whose numbers are uncertain, are shown with a selection of clear calls. Calls come from the whole dose curve; as a rule, active = well fitted activation curve with a large enough effect; inconclusive = small, poorly fitted or top-dose-only effect; inactive = no such curve, though single readings can be large or run the other way. No potency is given beside an inconclusive call; the fits are too rough.
# Experiment: qHTS Assay for NPC1 Promoter Activators; note: nearly all actives have a fitted effect of over 60% in size;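 for activation: reporter is driven by a mutant NPC1 promoter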
# Conditions: Huh7 NPC1 promoter luciferase reporter, 24 h; series mostly up to 9.22 µM
# Summary of the method: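 Huh7 cells stably carrying NPC1 promoter–luciferase, plated in Opti-MEM with 10% FBS for 2 h, were exposed to compound in DMSO for 24 h at 37 °C; luciferase reagent was added for 10 min and luminescence read.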
# Potency is the fitted concentration of half-maximal effect; tags give direction and shape of the fitted curve.
row,Compound,Potency
1,CC(=O)NCCc1nc2ccccc2n1Cc1cc(C)ccc1C,"inconclusive [activator, single point]"
2,O=c1cc2c(nn1Cc1cccc([N+](=O)[O-])c1)-c1ccccc1CC2,inactive
3,CCS(=O)(=O)Nc1ccc(-c2nc3cccnc3s2)cc1,active: 0.794 µM
4,CCOc1ccc2nc(SCC(=O)NC3CC3)sc2c1,"inconclusive [activator, partial curve, poor fit]"
5,COCCNC(=O)c1noc2c1CCc1cc(OC)ccc1-2,active: 3.55 µM
6,Cc1cc(/C=C(\C#N)C(=O)NC2CC2)c(C)[nH]1,active: 3.98 µM
7,O=C(NCCOc1ccccc1)C1CCCCC1,"inconclusive [activator, partial curve]"
8,Cc1nc2sc(-c3ccccc3)nn2c(=O)c1Br,active: 3.16 µM
9,Cc1ccc(OCCC(=O)N(Cc2ccccc2)c2c(N)n(Cc3ccccc3)c(=O)[nH]c2=O)cc1,inactive
10,CCOC(=O)CN1C(=O)S/C(=C/C=C/c2ccc(N(C)C)cc2)C1=O,"inconclusive [activator, partial curve]"
11,COc1cc2c(cc1NC(=O)COC(=O)CNC(=O)c1ccccc1)oc1ccccc12,"inconclusive [activator, partial curve]"
12,COc1cccc(C(=O)Nc2nnc(-c3cccs3)o2)c1,"inconclusive [activator, partial curve]"
13,COc1ccc(N/C=C2/Sc3ccccc3NC2=O)cc1,"inconclusive [activator, single point]"
14,Cc1cc(/C=N/Nc2ccc([N+](=O)[O-])cn2)c(C)n1-c1ccccc1,"inconclusive [activator, partial curve]"
15,O=C(Nc1ccccc1)c1ccc(-c2ccc(F)cc2)s1,"inconclusive [activator, single point]"
16,COc1ccc(N2CC(C(=O)OCC(=O)Nc3cccc(C)c3)CC2=O)cc1 (stereo unspecified),inactive
17,Cc1c(C(=O)Nc2cccc([N+](=O)[O-])c2)csc1-c1ccccc1,active: 0.708 µM
18,O=C(NNC(=S)NC1CCCCC1)c1sc2ccccc2c1Cl,inactive
19,N#C/C(=N\Nc1ccccc1[N+](=O)[O-])C(=N)N1CCCCC1,active: 0.562 µM
20,Cc1nn2c3c(cnc2c1-c1ccccc1)C(=O)CCC3,"inconclusive [activator, partial curve]"
21,Fc1ccccc1NC(=S)NCCc1cccc(Cl)c1,"inconclusive [activator, single point]"
22,COc1ccccc1N(C)C(=O)c1cc(S(=O)(=O)N2CCCC2)cn1C,inactive
23,CCN(CC)C(=O)Oc1ccc2c(=O)c(-c3ccc(OC)cc3)c(C)oc2c1,inactive
24,Clc1cccc(-c2ccc(C=Nc3ccc(N4CCOCC4)cc3)o2)c1,inactive
25,Cc1cc(C(=O)Nc2ccccc2)c(C)o1,inactive
26,N#CCc1ccc(NC(=O)Nc2cccc(Cl)c2)cc1,"inconclusive [activator, single point]"

row,Compound,Potency
1,CCc1nnc(NC(=O)c2sc3nc4c(cc3c2N)CCCCCC4)s1,"inconclusive [activator, partial curve]"
2,Cc1cc(NC(=O)CSc2nc3c(cc2C#N)CCC3)no1,active: 0.501 µM
3,O=C(NC(=S)NC1CCCCC1)c1ccc(F)cc1,"inconclusive [activator, partial curve]"
4,CC(=O)c1ccc(NC(=O)Nc2ccc3c(c2)nc(C)n3C)cc1,"inconclusive [activator, partial curve]"
5,Cc1nc2ccc(NC(=O)Cc3ccsc3)cc2s1,active: 2.82 µM
6,CC(=O)c1cc(Cl)ccc1OCC(=O)NC1CCCC1,"inconclusive [activator, partial curve]"
7,CC(C)=CC(=O)OCC(=O)Nc1cccc([N+](=O)[O-])c1,inactive
8,CCOc1ccc(-c2nnc(-c3ccco3)o2)cc1,active: 0.631 µM
9,O=C(CCCC1=NS(=O)(=O)c2ccccc2N1)OCc1ccc(Cl)cc1,"inconclusive [activator, single point]"
10,Cc1nc(NC(=O)c2ccc(Br)s2)sc1C(=O)N(C)C,active: 3.16 µM
11,N#Cc1ccc(CC(C(=O)O)N2Cc3ccccc3C2=O)cc1 (stereo unspecified),inactive
12,CC(C)(C)c1ccc(/C=N/Nc2cccc(C(=O)O)c2)cc1,active: 0.501 µM
13,Cc1c(C)c2cc(Cl)c(O)c(CN3CCCC(C)C3)c2oc1=O (stereo unspecified),inactive
14,COc1ccccc1C1=NN(C(=S)Nc2ccccc2)C(c2ccco2)C1 (stereo unspecified),"inconclusive [activator, single point]"
15,Nc1ccc(-c2nnc(-c3ccccc3)o2)cc1,active: 3.16 µM
16,CNC(=O)C(=O)Nc1nc(C23CC4CC(CC(C4)C2)C3)cs1,"inconclusive [activator, partial curve]"
17,Cc1ccsc1C(=O)NCCc1c[nH]c2ccccc12,"inconclusive [activator, single point]"
18,CCOC(=O)Cn1cnc2c(cnn2-c2ccc(OC)cc2)c1=O,"inconclusive [activator, single point]"
19,CC(C)C[C@@H](CSc1ccccc1)N1CCN(CC(C)C)CCC1=O,"inconclusive [activator, partial curve]"
20,COC(=O)c1ccc2nc(Nc3nc4c(F)cc(F)cc4s3)sc2c1,inactive
21,CCCc1ccc(OCCNC(=O)c2ccco2)cc1,"inconclusive [activator, single point]"
22,CN1C(=O)/C(=C\c2ccc(N(C)C)cc2)OC1=S,"inconclusive [activator, single point]"
23,CN(C)S(=O)(=O)c1cccc(C(=O)Nc2ccc(Cl)cn2)c1,"inconclusive [activator, partial curve]"
24,COc1ccc(N/C=C/C(=O)c2ccccc2)cc1,active: 0.316 µM
25,Cc1ocnc1C(=O)Nc1ccc(Cl)cc1,"inconclusive [activator, partial curve]"
